# PMC8694192, “Synthesis and biological evaluation of new derivatives of thieno-thiazole and dihydrothiazolo-thiazole scaffolds integrated with a pyrazoline nucleus as anticancer and multi-targeting kinase inhibitors” (RSC Advances, 2021)
# Tested on: MCF-7 cells
# Test: DNA-flow cytometric cell cycle analysis (PI staining)
# Format: cell-based, human
# Settings: MCF-7, 24 h, 4.021 μM for compound 1, 8.35 μM for 3c
# Protocol: More details in the ESI. ^†
# DMSO was utilized as a negative control. The stages of cell cycle were being detected via flow cytometry after propidium iodide (PI) staining followed by RNAse treatment.[63] In this experiment, MCF-7 cells were incubated with a concentration of 4.021 μM for compound 1 and with 8.35 μM for compound 3c for 24 h. The flow cytometry approach was used to quantify cell populations at various stages of the cell cycle (pre-G1, G1, S and G2/M phases).
# screening of final compounds.
# using 1 μM concentration of ATP.
# 1.2.4. Annexin V-FITC apoptosis assay
# Briefly, cells were seeded
structure (smiles),measurement,value
"Cc1c(Nc2nc3c(C(=O)NN)c(N)sc3s2)c(=O)n(-c2ccccc2)n1C [Compound 3c, 5-Amino-2-((1,5-dimethyl-3-oxo-2-phenyl-2,3-dihydro-1H-pyrazol-4-yl)amino) thieno[3,2-d]thiazole-6-carbohydrazide]",percentage of cells at G2/M,3.38%
same,percentage of cells at S phase,35.18%
